These results are taken from patent US20180028478A1, “ANTIVIRAL COMPOSITIONS DIRECTED AGAINST THE NUCLEOPROTEIN OF INFLUENZA VIRUSES” (priority 2011, published 2018).

Like-named read-outs stand apart in the source and are kept apart here.

This assay concerns H1N1 virus (wsn/33). In kind it is cell-based, Influenza A H1N1 wsn/33.

Take `COc1ccc2cc(-c3c(C(=O)O)cccc3C(=O)O)ccc2c1` [Naproxen c0]: the Protection % runs as follows: (5 μM) 30 ± 3%; (25 μM) 77 ± 5%.

Consider `COc1ccc2cc(C(CC(=O)O)CC(=O)O)ccc2c1` [Naproxen A], for which the Protection % came to 8 ± 1% (5 μM) and 54 ± 4% (25 μM).
